# Experimental data from publication PMC4336329 (PLoS ONE, 2015).
# Hit rate of the full screen: of about 310,000 compounds, about 2,200 (0.71%) showed an effect of 50% or more. Effects have a minus sign here. Some of the results follow.
# Target: human ether-à-go-go-related gene (hERG) potassium channel (human, UniProt Q12809)
# Experiment: primary screen, population patch clamp on CHO cells stably expressing hERG
# human ether-à-go-go-related gene (hERG) potassium channel, sequence (Q12809 whole entry, looked up): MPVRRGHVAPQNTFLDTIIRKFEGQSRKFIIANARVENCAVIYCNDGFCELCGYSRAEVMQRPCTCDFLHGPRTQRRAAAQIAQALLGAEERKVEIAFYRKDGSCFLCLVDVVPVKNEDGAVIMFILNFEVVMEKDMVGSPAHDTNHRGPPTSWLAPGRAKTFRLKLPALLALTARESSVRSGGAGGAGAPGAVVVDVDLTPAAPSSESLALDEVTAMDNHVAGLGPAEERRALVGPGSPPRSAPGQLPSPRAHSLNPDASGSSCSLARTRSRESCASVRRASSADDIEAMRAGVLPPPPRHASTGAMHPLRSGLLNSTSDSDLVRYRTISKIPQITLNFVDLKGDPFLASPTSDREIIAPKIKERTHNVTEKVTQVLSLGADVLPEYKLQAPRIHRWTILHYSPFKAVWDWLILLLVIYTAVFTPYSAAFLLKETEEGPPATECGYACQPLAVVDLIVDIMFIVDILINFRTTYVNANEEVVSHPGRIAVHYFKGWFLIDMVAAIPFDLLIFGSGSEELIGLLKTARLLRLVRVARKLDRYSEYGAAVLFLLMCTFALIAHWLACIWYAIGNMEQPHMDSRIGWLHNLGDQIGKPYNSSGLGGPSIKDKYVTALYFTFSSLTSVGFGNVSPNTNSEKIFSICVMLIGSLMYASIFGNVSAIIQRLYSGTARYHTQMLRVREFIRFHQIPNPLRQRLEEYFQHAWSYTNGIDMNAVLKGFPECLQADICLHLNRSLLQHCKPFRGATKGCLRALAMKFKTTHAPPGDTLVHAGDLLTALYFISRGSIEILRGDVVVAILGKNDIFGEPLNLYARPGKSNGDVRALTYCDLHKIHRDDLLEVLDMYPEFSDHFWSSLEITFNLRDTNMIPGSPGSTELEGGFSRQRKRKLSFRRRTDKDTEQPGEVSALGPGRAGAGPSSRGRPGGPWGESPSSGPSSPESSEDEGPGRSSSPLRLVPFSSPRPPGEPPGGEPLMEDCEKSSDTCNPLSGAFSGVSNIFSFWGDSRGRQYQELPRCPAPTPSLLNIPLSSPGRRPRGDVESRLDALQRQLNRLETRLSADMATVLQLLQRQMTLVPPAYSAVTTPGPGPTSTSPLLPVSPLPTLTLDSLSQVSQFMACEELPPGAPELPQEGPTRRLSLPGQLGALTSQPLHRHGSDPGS
row,SMILES,"hERG current change (%, negative = inhibition) at 1uM [%]"
1,COc1ccc(C(=O)C(OC(=O)c2ccccc2Cl)c2ccccc2)cc1 (centres unmarked),10
2,COC(=O)c1ccc(CN2C(=O)C3CCCCC3C2=O)o1 (centres unmarked),8.41
3,CN(C)S(=O)(=O)c1ccc(C(=O)NCC(C)(C)N2CCOCC2)cc1,15.7
4,O=C1OC2(CCCCC2)OC(=O)C1=CNc1nc2ccccc2s1,10.2
5,CCOP(=O)(OCC)c1nc(-c2cccc([N+](=O)[O-])c2)oc1N1CCCCC1,2.09
6,Brc1cccc(-c2nnc3sc(CN4CCC5(CC4)OCCO5)cn23)c1,-2.39
7,CSc1nnc2c(n1)OC(C)=Nc1ccccc1-2,5.23
8,CC(C)(C)c1ccc(OCC(O)CN2CCCC2)cc1.Cl (centres unmarked),3.51
9,COCc1cc(C)nc(NC2CC(C)(C)NC(C)(C)C2)c1C#N,20.3
10,CC(=O)Nc1sc(-c2ccccc2)nc1-c1ccccc1,17.4
11,Cl.O=S(=O)(NCCCN1CCOCC1)c1ccc(F)c(Cl)c1,1.93
12,O=C(CN(c1ccccc1)S(=O)(=O)c1ccccc1)N1CCN(Cc2ccc3c(c2)OCO3)CC1,5.44
13,COc1cccc(C(=O)Nc2ccc(S(=O)(=O)NCc3ccco3)cc2)c1,-5.3
14,CCCCNC(=O)Nc1ccc(Br)cn1,-5.39
15,Cc1ccc(-n2cccn2)c(CN2CCCC(C(=O)c3ccc4c(c3)OCO4)C2)c1 (centres unmarked),-83.5
16,COC(=O)[C@@H](NC(=O)NC1CCN(Cc2ccccc2)CC1)C(C)C,13.6
17,COC(=O)Cc1ccc(NC(=O)c2ccc(C(C)(C)C)cc2)cc1,0.792
18,Cc1cc(C)c(S(=O)(=O)N2CCN(C(=O)c3c(C)noc3C)CC2)c(C)c1,14
19,CCN(CC)S(=O)(=O)c1ccc(Cl)c(NC(=O)CSc2cccc[n+]2[O-])c1,-6.3
20,CC(C)n1c2ccccc2c2cc([N+](=O)[O-])ccc21,18.5
21,CCOC(=O)c1ccc(NC(=O)c2ccc3c(c2)OCO3)cc1,13.4
22,CN1CCN(C(=S)Nc2cc(S(=O)(=O)N3CCOCC3)ccc2Cl)CC1,8.54

row,SMILES,"hERG current change (%, negative = inhibition) at 1uM [%]"
1,O=S1(=O)N=C2CCCCCN2C(c2ccc(Cl)cc2)N1 (centres unmarked),-1.39
2,COc1ccc(Nc2ccc(Cl)cc2)c(C(=O)O)c1,3.13
3,O=C(NC1(C(F)(F)F)NC(=O)N(C2CCCCC2)C1=O)c1ccco1 (centres unmarked),5.14
4,CC(C)C(=O)Nc1c(-c2ccccc2F)c(=O)c2ccccc2n1C,13.1
5,O=C(Nc1nc2c(s1)CCCC2)c1ccc(N2C(=O)CCC2=O)cc1,5.6
6,Cc1ccc(NC(=O)c2ccc(NCc3ccc(F)cc3)nc2)cc1,9.35
7,COc1ccc(NC(=O)N2CCCC2C(=O)NCc2ccc(C)cc2)cc1 (centres unmarked),15.8
8,CC(C)[C@H](NC(=O)OC(C)(C)C)c1nnc(SCC(=O)Nc2ccc(Br)cc2)o1,-0.0537
9,O=c1[nH]c(=O)n(Cc2ccco2)c2c1C(C(F)(F)F)(C(F)(F)F)N=C(c1ccco1)N2,10.5
10,COc1cccc(C2C(C(=O)c3cc4ccccc4o3)=C(O)C(=O)N2c2cc(C)on2)c1OC (centres unmarked),13.4
11,COc1cc(NS(=O)(=O)c2ccc(F)cc2)c(C(=O)O)cc1OC,11.8
12,O=c1c2cc(Cl)ccc2[nH]c(=S)n1Cc1ccco1,-1.43
13,Cc1ccc(/C=C2\C(=O)NC(=S)N(c3ccc(F)cc3)C2=O)s1,5.04
14,COc1ccccc1C(=O)Nc1c(-c2ccccc2)nc2ccccn12,7.3
15,CCOc1ccc(N(C)S(=O)(=O)c2ccc(-c3cc(C)no3)s2)cc1,15.5
16,COc1ccc(C(=O)Nc2cc(C)nn2-c2ccc(C)cc2)cc1,13.5
17,Cc1cc(O)c2c(c1)C(=O)c1cc(O)cc(O)c1C2=O,7.15
18,COc1ccc(NS(=O)(=O)c2cccc(C(=O)N/N=C/c3cccs3)c2)cc1,-0.292
19,CCNC(=O)C(=O)NCCc1ccc(Cl)cc1,14.9
20,O=[N+]([O-])c1cccc(C(=S)N2CCN(c3ccccc3F)CC2)c1,7.18
21,CCOC(=O)Cc1nnc(NC(=O)c2ncn[nH]2)s1,0.492
22,COC(=O)C1=C(c2c(C)noc2C)C[C@@H]2CC[C@H]1N2C(=O)N1CCCC1,12.8
